Key:
mutant I146L = assay: Effect of PRLR inhibitors on proliferation of Ba/F3 cells expressing mutant I146L; type: cell-based, murine; details: increasing inhibitor concentrations, no PRL, 3 days
Experimental: (§1) Cells were starved for 6 hours in 1% FCS RPMI medium with additives (no PRL), then distributed in 96 well-plates at a density of 5×10^4 cells/well in a final volume of 100 μL. One hundred μL, of [2×] hPRL (and/or antagonist) diluted in the same medium were added after starvation period. Cell survival/proliferation was estimated after 2-3 days of hormonal stimulation by adding 10-20 μL, of WST-1 tetrazolium salt, which is metabolized by living cells (BERNICHTEIN et al., Endocrine, 20, 177-190, 2003). Optical density at 450 nm (OD450) was measured after 1-3 hours of colorimetric reaction using an ELISA plate reader. The experiments were routinely performed at least three times in triplicate or quadruplicate.
Proliferation of stable Ba/F3 cell populations was evaluated in poor medium (1% FCS) in the presence of WT hPRL, or of the PRLR antagonist De11-9-G129R-hPRL, or of AG490, for 3 days. The results are illustrated in FIGS. 12 and 13.

[1] = system: LHRE-luciferase reporter (Stat5); assay: LHRE-luciferase reporter assay in HEK 293 cells expressing WT or mutated hPRLR; type: cell-based, human
Excerpt: The human PRLR cDNA inserted into the pc/DNA3 eukaryotic vector (InVitrogen, Carlsbad, Calif.) has been generated as described previously (LOCHNAN et al, Mol Cell Endocrinol 114:91-99, 1995; GOFFIN et al, J Biol Chem 271:16573-16579, 1996). The PRLR-responsive LHRE-luciferase reporter gene carries the sequence encoding the firefly luciferase gene under the control of a 6-repeat sequence of the lactogenic hormone response element (LHRE) followed by the minimal thymidine kinase promoter (GOFFIN et al., J Biol Chem, 271, 16573-16579, 1996). LHRE is the DNA binding element of the signal transducer and activator of transcription Stat5, one of the signaling proteins activated by the PRLR once it is activated (WAKAO et al, EMBO J. 13, 2182-2191, 1994).
Cells were routinely cultured in DMEM medium supplemented with 10% FCS, 2 mM glutamine, 50 U/mL penicillin, 50 μg/mL streptomycin. […]
After trypsinization, cells were counted and aliquoted in 96-well plates at a density of 50,000 cells/100 μL/well. […] Luciferase activity (only firefly luciferase for stable clones, and both firefly and renilla luciferases for transient transfections) for each experimental condition was counted in 10-20 μL of cell lysates for 10 seconds using a luminometer (Lumat LB 9501, Berthold, Nashua, N.H.). […]

Ba/F3 cells [2] = assay: Proliferation assay (WST-1) of Ba/F3 cells expressing WT PRLR or I146L or I76V mutant; type: cell-based, murine; details: 1% FCS
Experimental: Ba/F3 cells are a pro-B murine cell line dependent on IL-3 for growth. Cells were transfected by electroporation using 5-20 μg of plasmid encoding the WT or mutated human PRLR(CMV promoter), then the populations stably expressing the receptor was selected by several passages in G418-containing medium. Ba/F3-hPRLR cells were routinely maintained in RPMI 1640 medium supplemented with 10% heat-inactivated FCS, 2 mM glutamine, 50 U/mL penicillin, 50 μg/mL streptomycin, 700 μg/mL G-418 (for selection of stably transfected cells), and 10-100 ng/mL WT hPRL instead of IL-3 as the growth factor.
as §1

Stat5 = Stat5 phosphorylation by immunoprecipitation and western blot in Ba/F3 populations; type: cell-based, murine; details: absence of PRL stimulation
Experimental: Stat5 is the main PRLR signalling mediator, and a known anti-apoptotic factor in Baf cells. Its phosphorylation was analyzed by immunoprecipitation and western blot, using the protocol described in Example 3 for the analysis of PRLR phosphorylation.
Immunoprecipitation was performed with anti-STAT5 antibodies (c17, SantaCruz). The membranes were incubated with anti-PY antibody (4G10, Upstate), and when required re-incubated with anti-STAT5 (c17, SantaCruz) antibodies.
The results are illustrated by FIG. 16: (−)=no PRL, (+)=0,5 μg/ml PRL.

Ba/F3 cells [3] = assay: Cell cycle / apoptosis of transfected Ba/F3 stable populations by FACS (propidium iodine); type: cell-based, murine; details: absence of PRL, minimal medium, 30 h
Excerpt: The cell cycle of transfected Ba/F cells (stable populations) was studied by FACS analysis, using propidium iodine labelling as previously described (JEAY et al., Endocrinology 142:147-156, 2001). Cells were put in minimal medium, with or without PRL for the indicated time.

hPRL = assay: Binding affinity of WT and mutated PRLR for hPRL, [125I]-hPRL competition with Scatchard analysis, stably transfected HEK 293 cell homogenates; set-up: species or system human; details: stable HEK 293 clones, overnight at room temperature
Experimental: Binding affinities of mutated PRLR for hPRL were determined using cell homogenates of stably transfected HEK 293, following a procedure previously described (KINET et al., J Biol Chem, 274, 26033-26043, 1999). Briefly, recombinant hPRL, produced in bacteria E. coli using the pT7L expression vector, and purified as described previously (PARIS et al., Biotechnol Appl Biochem, 12, 436-449, 1990), was iodinated using the Iodogen method, and its specific activity was in the range of 4-5 μCi/μg. Binding assays were performed overnight at room temperature using 150-300 μg cell homogenate protein in the presence of 20,000-30,000 cpm [^125I]-hPRL and increasing concentrations of unlabeled hPRL (competitor). Scatchard analysis was performed to determine the binding affinity of mutated PRLR and the number of PRLR per cell in stable clones or populations.

PRLR phosphorylation = assay: PRLR tyrosine phosphorylation by immunoprecipitation and western blot in transfected HEK 293 cells; type: cell-based, human
Experimental: Receptor phosphorylation on tyrosine residues is the first step of PRLR activation.
Transient or stable transfected cells were starved overnight in FCS-free medium before hormonal stimulation. The next day, cells were stimulated (5-30 min at 37° C.) using various concentrations of WT hPRL as indicated. At the end of the stimulation, cells were washed twice with ice-cold saline buffer and cell pellets were kept frozen until used. Cells were solubilized in 0.5-1 ml lysis buffer (30 min under gentle rotation at 4° C.). Lysates were centrifuged for 10 min at 13,000×g, then supernatants were quantified for their protein content by Bradford assay and used for immunoprecipitation.
For immunoprecipitation studies, 0.5-1 mg of total lysate were incubated with anti-human PRLR (anti extracellular domain of the human PRLR, Zymed, clone 1A2B1), used at 1-5 μl/ml. After overnight rotation at 4° C., immune complexes were captured using 20 μl Protein A Sepharose slurry for 1 additional hour rotation at 4° C. Protein A complexes were precipitated by centrifugation, pellets were washed 3 times in lysis buffer and boiled in 15 μl reducing SDS sample buffer for 5 min at 95° C. Finally, immunoprecipitated samples were analysed using 7.5% SDS-PAGE. Electrophoretic transfer onto nitrocellulose membranes (Bio-Rad) was performed as described (LLOVERA et al., Oncogene, 19, 4695-4705, 2000). […]

Row | Molecule | inhibition of strong constitutive activity (proliferation) of mutant I146L (mutant I146L) | basal activity (unstimulated cells), luciferase ([1]; no PRL, compared to WT receptor) | fold stimulation induced by PRL ([1]; stable clones, PRL 1 μg/ml, 24 hours) | effect of PRL on proliferation (Ba/F3 cells [2]; 10 or 100 ng/ml hPRL) | constitutive proliferation / survival (Ba/F3 cells [2]; absence of PRL) | phosphorylation of Stat5 (Stat5) | apoptosis (Ba/F3 cells [3]) | Kd (hPRL) | constitutive phosphorylation of PRLR (PRLR phosphorylation; absence of PRL stimulation) | effect of PRL stimulation on PRLR phosphorylation (PRLR phosphorylation; with PRL stimulation)
1 | N#CC(=Cc1ccc(O)c(O)c1)C(=O)NCc1ccccc1 [AG490, N-Benzyl-3,4-dihydroxy-benzylidenecyanoacetamide, reference compound] | dose-dependent effect |  |  |  |  |  |  |  |  | 
2 | I146L: mutant human prolactin receptor wherein the Ile residue at position 146 is substituted by a Leu residue (protein) QLPPGKPEIFKCRSPNKETFTCWWRPGTDGGLPTNYSLTYHREGETLMHECPDYITGGPNSCHFGKQYTSMWRTYIMMVNATNQMGSSFSDELYVDVTYIVQPDPPLELAVEVKQPEDRKPYLWIKWSPPTLIDLKTGWFTLLYELRLKPEKAAEWEIHFAGQQTEFKILSLHPGQKYLVQVRCKPDHGYWSAWSPATFIQIPSDFTMNDTTVWISVAVLSAVICLIIVWAVALKGYSMVTCIFPPVPGPKIKGFDAHLLEKGKSEELLSALGCQDFPPTSDYEDLLVEYLEVDDSEDQHLMSVHSKEHPSQGMKPTYLDPDTDSGRGSCDSPSLLSEKCEEPQANPSTFYDPEVIEKPENPETTHTWDPQCISMEGKIPYFHAGGSKCSTWPLPQPSQHNPRSSYHNITDVCELAVGPAGAPATLLNEAGKDALKSSQTIKSREEGKATQQREVESFHSETDQDTPWLLPQEKTPFGSAKPLDYVEIHKVNKDGALSLLPKQRENSGKPKKPGTPENNKEYAKVSGVMDNNILVLVPDPHAKNVACFEESAKEAPPSLEQNQAEKALANFTATSSKCRLQLGGLDYLDPACFTHSFH |  | much higher | 4 fold | did not markedly influence | proliferation similar to that induced by PRL on cells expressing WT PRLR | strong phosphorylation | never undergo apoptosis | 380 pM | constitutively phosphorylated | no detectable effect
3 | De11-9-G129R-hPRL: pure PRLR antagonist, variant of human prolactin, which interferes with the mechanism of receptor activation by PRL (protein) RCQVTLRDLFDRAVVLSHYIHNLSSEMFSEFDKRYTHGRGFITKAINSCHTSSLATPEDKEQAQQMNQKDFLSLIVSILRSWNEPLYHLVTEVRGMQEAPEAILSKAVEIEEQTKRLLERMELIVSQVHPETKENEIYPVWSGLPSLQMADEESRLSAYYNLLHCLRRDSHKIDNYLKLLKCRIIHNNNC | dose-dependent effect |  |  |  |  |  |  |  |  | 

Reference: patent US8263340B2, “Constitutively active mutants of the prolactin receptor” (Institut National de la Sante et de la Recherche Medicale …, priority 2007, dated 2012)
